In patent publication US7410635B2 (priority 2003, dated 2008):

Conditions: heating lorazepam to greater than 200 degrees Celsius

Compound: O=C1Nc2ccc(Cl)cc2C(c2ccccc2Cl)=NC1O (stereo not shown) [Lorazepam, 7-chloro-5-(2-chlorophenyl)-3-hydroxy-1,3-dihydro-2H-1,4-benzodiazepin-2-one]
- thermal degradation on heating: rearrangement and a loss of water to produce a carboxaldehyde
